# Experimental data reported in the supplement of paper PMC11417369.
# ± gives the standard deviation of the averaged measurements. The list shows a part of the results.
# System: PfAP2-LT AP2 domain (GST-tagged)
# Assay: gcPBM binding intensity (ln(normalized median fluorescence intensity)); higher = stronger DNA binding
# In short: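 Binding intensity is defined as the maximum Masliner-normalised natural-log median intensity across replicate spots for either probe orientation. It was measured on an Agilent 4 × 180k array of primer-extended double-stranded 36-bp intergenic genomic probes and negative controls, to which GST-tagged P. falciparum DNA-binding domains made in E. coli were applied for 1 h in 1× PBS with 1% milk, 0.2 mg/ml BSA, 0.5% salmon testes DNA and 0.03% Triton X-100. Detection was by Alexa488 anti-GST antibody and scanning at 488 nm.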
row,Sequence,gcPBM binding intensity (ln)
1,TGTATAAGTGCCGTTATACACACGTTATATAAATAT [CACACA_site438],8.98 ± 0.33
2,TATCTTATTTTAAAAGTGCATGGAAAGGGGTTTTTG,8.65 ± 0.23
3,TTCATTATTATTAACATACACACGTGTTATATACAC [CACACA_site4112],9.15 ± 0.4
4,AAAAAATACAAGAAATGTACTCAAGCATATATTAAT [XGTACX_site3325],9.01 ± 0.41
5,TTTTTACTATAATTAAAATTAACAAAAGAAAATGAT [GTGCAC_negctrl_site52],8.18 ± 0.45
6,TTCATTTTTTAAGCATCACACACGAAAGAACAAAGT [CACACA_site1122],8.98 ± 0.33
7,ATCAAAAATATAAAAAATATAAACAATTTATTATCA [CACACA_negctrl_site768],8.39 ± 0.52
8,ATATATATAATATGTAGTACTTTCCTCTCAAATCAT [XGTACX_site7766],8.86 ± 0.49
9,TTTACATCCAAAAACTGTACACTTATTTTATAATTC [XGTACX_site5332],8.74 ± 0.43
10,GAATCATATTTAAACACACATACATATATATATATA [CACACA_site3352],9.59 ± 0.014
11,AATAAGTAACAAAATACACACATATATATAATTATA [CACACA_site1837],9.21 ± 0.4
12,TCATAAATTAATAATACATGCATAATATTAAAATGT [TGCATGCA_site5],8.78 ± 0.42
13,AAAAATATATAAGAGAGTACATAAAATAAATTAATT [XGTACX_site1534],8.76 ± 0.42
14,TTTAATAATATAATGTGTACTTAAAAATTTATATAT [XGTACX_site5821],8.29 ± 0.4
15,TCATTTCAATACACAAGTACGTATATGGTTATATTG [XGTACX_site6021],8.82 ± 0.4
16,AATATAAAATAATGCACACATAAACAAAAAATCAAA [CACACA_site1371],9.12 ± 0.4
17,CGAAGGTTTGGCCATGCATGTTATAAGAATATATGT [TGCATGCA_site441],8.75 ± 0.34
18,ATTCTATATATGTGCACACAAAAGATATATATATAT [CACACA_site2124],9.72 ± 0.28
19,TTACATGTACAAAAGTTGCACTTCATACACTTTTAT,8.99 ± 0.46
20,TCATTTTATTATTCTACACACTTATCTATAATTACA [CACACA_site6168],8.88 ± 0.47
21,AGTATATCAAAATACATACACACATTTGTATATACA [CACACA_site2697],9.03 ± 0.34
22,TACGTTATGTTGAATAGTACAATTTGGTGAACAGGT [XGTACX_site1729],8.82 ± 0.42
23,TTTTTTTTTTTTTTTTGTACACAAATTTATTGTCTA [XGTACX_site2680],8.63 ± 0.37

row,Sequence,gcPBM binding intensity (ln)
1,GTCCTCATCCACTATGCACACAAAAAAGAAATACAC [CACACA_site9131],9.13 ± 0.4
2,TTTCCAAATTGTTGACGGACACTCACGAATAGTTAT [XGTACX_site5720],8.74 ± 0.45
3,ACATGAAGATATTTTTGTCCGTACAAATTCATATGA [XGTACX_site1837],8.66 ± 0.23
4,CATATGTATATGACTACACACAAGGGTGTACATATA [CACACA_site1164],9.2 ± 0.38
5,ATGTATATATTTACGTGTACATATTCATGTGATATC [XGTACX_site5871],9.03 ± 0.32
6,TTATACTTTGGGTGGTGTACTATATTATGCTTATAA [XGTACX_site1106],9.05 ± 0.17
7,TGCTATTTTTTCCTTTTTTTGTATCACAATCATATA [CACACA_negctrl_site1576],8.75 ± 0.48
8,ATTAAACATAAATATGCACACATATACATATATTCA [CACACA_site8850],9.01 ± 0.38
9,AGTAATAAAAGTAGAAGTACAATACTTCAAAGATAT [XGTACX_site8562],8.86 ± 0.52
10,TATTTCAAAATATGGGTGCAGTTCTTCATGATATAT [GTGCAC_site9658],8.79 ± 0.41
11,GTTCTAAAAGTTAATGCATGTTATAAGTTTCCCTCT [TGCATGCA_site94],8.87 ± 0.44
12,ATTATATACATTTTAGTGCATTACATAATAATATAA [GTGCAC_site9836],8.53 ± 0.41
13,GTATGCATTATATACACACATACATTTATATATTCT [CACACA_site115],9.1 ± 0.38
14,TTTCTTTTTTGATGCGTGCACATTTGTTTATTTTTC [GTGCAC_site9792],9.02 ± 0.47
15,ACTATTTAATATAGGGTGCAACTTTTTCAAGTAAAT [GTGCAC_site9853],8.66 ± 0.42
16,TTTATTTATTAATACACACACACACCCAGACAAAAT [CACACA_site4292],10 ± 0.099
17,TATCTTTTTACAATAGTGCATATGTTATCATTAATA [GTGCAC_site9489],8.69 ± 0.42
18,ATTTGCCCATTTAATTAACACACAAATGTTTATATT [CACACA_site8145],9.04 ± 0.46
19,AGATATATAAATATTACACACTATATATCTATTTAT [CACACA_site6466],8.88 ± 0.37
20,ACCCCCATATTCTTTTTACACACTTGAATAAAAAAT [CACACA_site8319],9.51 ± 0.11
21,ATTTTTCAATTATGTAGTACATTGATATTTTCATTT [XGTACX_site5369],8.89 ± 0.39
22,ATTCATTTTATTTTTTCACACACACCGATATATATA [CACACA_site9097],9.54 ± 0.3
23,AAAGGGGAAAATATTATACATATAATAAATCCGTAT [XGTACX_negctrl_site355],8.72 ± 0.52

row,Sequence,gcPBM binding intensity (ln)
1,TTTTTTTTTTTGTGGTGTACCTTTATTTCCTTTTAG [XGTACX_site6934],8.79 ± 0.52
2,AAAAAAAAAAAACACACACACACACCGATACATACA [CACACA_site8849],10.4 ± 0.085
3,ATTTTTATTCTTATTACACACCTAAATATAAAATAT [CACACA_site2064],8.71 ± 0.34
4,TTTATATTTATATTGGGTACATAAAAAGCTTGAAAT [XGTACX_site8248],8.32 ± 0.41
5,ATAAATATGGAGCACACACACATAAACATACATATA [CACACA_site421],9.96 ± 0.49
6,TGTGTCCATTGAACAGTGCAATAAAAACTTTTACAT,8.69 ± 0.42
7,TGTGTTCATATATGCACACGCATATATATTATTGTT [CACACA_site3822],9.07 ± 0.35
8,ATGTGCACATGTAGAAGTACTTTTTCTTAAAATACT [XGTACX_site8341],9.18 ± 0.54
9,TATGTTTTATATAAGATGCACTTTTGTTATGCTTCA,8.79 ± 0.46
10,ATTCTACACGCACATACACACATATAAATATAAATA [CACACA_site7582],9.24 ± 0.35
11,ATTTATGTTATTGTATGTACACAATATAATGTTATT [XGTACX_site5657],9.04 ± 0.35
12,AAAAAAAAATATATATATATATATATATAATAAAAA [CACACA_negctrl_site639],9.36 ± 0.43
13,TAAAAAGTACATTATTCATGGCCTATTACATTTTTT [GTGCAC_negctrl_site282],8.9 ± 0.48
14,AAAAAAAAAAAATGTGCACACGCGTACAGACAAAAA [CACACA_site2005],9.43 ± 0.35
15,ATATTTTACATATTTGCACACATATATTTAAATACA [CACACA_site4628],9.2 ± 0.24
16,ACACAAAAATAGTTTTTTATATTGTTAACCTTATAT [XGTACX_negctrl_site123],8.74 ± 0.45
17,ATAATATATATGAAATGTACATAAATTTAATGCGAC [XGTACX_site5394],9.18 ± 0.45
18,TAAATACAAGTAAAAAGTACAGAAAAATTATATATA [XGTACX_site1758],8.81 ± 0.54
19,TTTATTTGGACATATACACACTTAAATATGTTTATT [CACACA_site6021],8.87 ± 0.34
20,TTTATTTTGTTTTCTTGTACATAAATAATTACATAT [XGTACX_site4227],8.85 ± 0.48
21,TATAAAAAATTCAATACACACCATATATAAATATAT [CACACA_site6060],8.84 ± 0.4
22,AAGAGAAATGGGCACACACACACATATTATAGATAT [CACACA_site6828],9.8 ± 0.21
23,TGATTCACTATAGTAGTGCATATTATATATATATAT [GTGCAC_site9975],8.94 ± 0.3

row,Sequence,gcPBM binding intensity (ln)
1,TATAATAATTCATAATGTACTTTTATCAAAAAAGTA [XGTACX_site6868],8.37 ± 0.38
2,CAAATACACGGACACACACACACAAAAAAAAAAAAA [CACACA_site6385],10 ± 0.71
3,AAATTATTGTAAAATAGTACAGTGAAACATAAAGTT [XGTACX_site589],8.93 ± 0.43
4,TTTTTATTCAACAAAAATATCAAACATAATTATAAA [CACACA_negctrl_site616],8.21 ± 0.37
5,AATATTTATATTTACACACACATAATACATATATGT [CACACA_site33],9.46 ± 0.26
6,TTCCTTTAACCCTGCACACATACATACATTTATATG [CACACA_site3953],9.29 ± 0.46
7,ATTTTTATGTCTTTCTATAAATCGAAAATATACATA [CACACA_negctrl_site477],8.41 ± 0.36
8,ATATACAACTAAAGAACACACATCATTGTTCATTGG [CACACA_site3681],8.94 ± 0.35
9,AAAAAACGCACTCGTACACACATATTTTCTTTCTAA [CACACA_site3089],9.05 ± 0.38
10,ATATAATCAACTGCAAAGGTTTAAAAGGAAAAAATA [CACACA_negctrl_site989],8.66 ± 0.57
11,TTAATTACACAAAAAAGTACTTGATATTGTTTATTA [XGTACX_site3449],8.48 ± 0.43
12,AATATTTACCAGAAAATAAAAATATGTATATATATA [CACACA_negctrl_site351],8.63 ± 0.47
13,CGATATTCTAAGGATAGTACATAATAAAATAGAGTA [XGTACX_site4224],8.69 ± 0.51
14,ATTTATATTTTTTAATGTACATTTATATGTATACAA [XGTACX_site4555],8.76 ± 0.51
15,TAAAATAGAAATATATGTACATATATATATGTATAT [XGTACX_site4134],8.82 ± 0.47
16,TATTTTTTTAAAATAGGTACACAATCAAACATTTAT [XGTACX_site8785],8.41 ± 0.4
17,TTATAGACATATATAGGTACACATATTTTCAATCCC [XGTACX_site8230],8.79 ± 0.33
18,ATTTATTAATCATATACACACATATATTTGTATTTA [CACACA_site1336],9.07 ± 0.46
19,ATATATATATATAATACACACATAAATGAATATATA [CACACA_site316],9.12 ± 0.35
20,TTTATATAATATTCTACACACCAACAACAAACATAT [CACACA_site4478],9.1 ± 0.26
